# Data reported in IntAct's records for PubMed 30126976.
# B1: Glutamate receptor ionotropic, NMDA 2B (Homo sapiens), Q13224 (parent)
# chain: MKPRAECCSPKFWLVLAVLAVSGSRARSQKSPPSIGIAVILVGTSDEVAIKDAHEKDDFHHLSVVPRVELVAMNETDPKSIITRICDLMSDRKIQGVVFADDTDQEAIAQILDFISAQTLTPILGIHGGSSMIMADKDESSMFFQFGPSIEQQASVMLNIMEEYDWYIFSIVTTYFPGYQDFVNKIRSTIENSFVGWELEEVLLLDMSLDDGDSKIQNQLKKLQSPIILLYCTKEEATYIFEVANSVGLTGYGYTWIVPSLVAGDTDTVPAEFPTGLISVSYDEWDYGLPARVRDGIAIITTAASDMLSEHSFIPEPKSSCYNTHEKRIYQSNMLNRYLINVTFEGRNLSFSEDGYQMHPKLVIILLNKERKWERVGKWKDKSLQMKYYVWPRMCPETEEQEDDHLSIVTLEEAPFVIVESVDPLSGTCMRNTVPCQKRIVTENKTDEEPGYIKKCCKGFCIDILKKISKSVKFTYDLYLVTNGKHGKKINGTWNGMIGEVVMKRAYMAVGSLTINEERSEVVDFSVPFIETGISVMVSRSNGTVSPSAFLEPFSADVWVMMFVMLLIVSAVAVFVFEYFSPVGYNRCLADGREPGGPSFTIGKAIWLLWGLVFNNSVPVQNPKGTTSKIMVSVWAFFAVIFLASYTANLAAFMIQEEYVDQVSGLSDKKFQRPNDFSPPFRFGTVPNGSTERNIRNNYAEMHAYMGKFNQRGVDDALLSLKTGKLDAFIYDAAVLNYMAGRDEGCKLVTIGSGKVFASTGYGIAIQKDSGWKRQVDLAILQLFGDGEMEELEALWLTGICHNEKNEVMSSQLDIDNMAGVFYMLGAAMALSLITFICEHLFYWQFRHCFMGVCSGKPGMVFSISRGIYSCIHGVAIEERQSVMNSPTATMNNTHSNILRLLRTAKNMANLSGVNGSPQSALDFIRRESSVYDISEHRRSFTHSDCKSYNNPPCEENLFSDYISEVERTFGNLQLKDSNVYQDHYHHHHRPHSIGSASSIDGLYDCDNPPFTTQSRSISKKPLDIGLPSSKHSQLSDLYGKFSFKSDRYSGHDDLIRSDVSDISTHTVTYGNIEGNAAKRRKQQYKDSLKKRPASAKSRREFDEIELAYRRRPPRSPDHKRYFRDKEGLRDFYLDQFRTKENSPHWEHVDLTDIYKERSDDFKRDSVSGGGPCTNRSHIKHGTGDKHGVVSGVPAPWEKNLTNVEWEDRSGGNFCRSCPSKLHNYSTTVTGQNSGRQACIRCEACKKAGNLYDISEDNSLQELDQPAAPVAVTSNASTTKYPQSPTNSKAQKKNRNKLRRQHSYDTFVDLQKEEAALAPRSVSLKDKGRFMDGSPYAHMFEMSAGESTFANNKSSVPTAGHHHHNNPGGGYMLSKSLYPDRVTQNPFIPTFGDDQCLLHGSKSYFFRQPTVAGASKARPDFRALVTNKPVVSALHGAVPARFQKDICIGNQSNPCVPNNKNPRAFNGSSNGHVYEKLSSIESDV
# Variants of: B1
# Settings: with scrib_human SCRIB
row,Variant,effect of a mutation on the interaction
1,S1479E,decreasing interaction strength
